Experimental data: paper PMC12889043
No constants are given. Whether binding was seen depends on the method and setting. Binding seen in cells or lysates may run through a third protein. Some entries that bind do so weakly or less than the wild type. Tags and fused reporters may be left off the sequences shown.

How the values were obtained:
[1] = target: T1, Flag-tagged full-length human RND3 (pcDNA3.1-Flag-hRND3) (human) (UniProt P61587); test: co-IP; HEK293T co-transfected with Flag-RND3 and one HA-tagged adaptor, 24 h; RIPA lysate; anti-Flag agarose affinity gel overnight at 4 C, washed with cold TBS; blot with anti-HA
T1 sequence: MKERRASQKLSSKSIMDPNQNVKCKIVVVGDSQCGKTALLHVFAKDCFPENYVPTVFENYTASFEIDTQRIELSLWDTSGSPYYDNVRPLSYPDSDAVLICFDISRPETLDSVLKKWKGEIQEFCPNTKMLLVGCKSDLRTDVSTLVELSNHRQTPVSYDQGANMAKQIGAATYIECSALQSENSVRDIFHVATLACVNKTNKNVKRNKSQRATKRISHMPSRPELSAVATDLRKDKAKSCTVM

[2] = target: T2, HA-IKKε (IκB kinase epsilon) (UniProt Q14164); test: co-IP; HEK293T transfected with HA-IKKε or Flag-RND3 alone, 24 h; precipitate blotted with anti-RND3 or anti-IKKε for the endogenous partner
T2 sequence: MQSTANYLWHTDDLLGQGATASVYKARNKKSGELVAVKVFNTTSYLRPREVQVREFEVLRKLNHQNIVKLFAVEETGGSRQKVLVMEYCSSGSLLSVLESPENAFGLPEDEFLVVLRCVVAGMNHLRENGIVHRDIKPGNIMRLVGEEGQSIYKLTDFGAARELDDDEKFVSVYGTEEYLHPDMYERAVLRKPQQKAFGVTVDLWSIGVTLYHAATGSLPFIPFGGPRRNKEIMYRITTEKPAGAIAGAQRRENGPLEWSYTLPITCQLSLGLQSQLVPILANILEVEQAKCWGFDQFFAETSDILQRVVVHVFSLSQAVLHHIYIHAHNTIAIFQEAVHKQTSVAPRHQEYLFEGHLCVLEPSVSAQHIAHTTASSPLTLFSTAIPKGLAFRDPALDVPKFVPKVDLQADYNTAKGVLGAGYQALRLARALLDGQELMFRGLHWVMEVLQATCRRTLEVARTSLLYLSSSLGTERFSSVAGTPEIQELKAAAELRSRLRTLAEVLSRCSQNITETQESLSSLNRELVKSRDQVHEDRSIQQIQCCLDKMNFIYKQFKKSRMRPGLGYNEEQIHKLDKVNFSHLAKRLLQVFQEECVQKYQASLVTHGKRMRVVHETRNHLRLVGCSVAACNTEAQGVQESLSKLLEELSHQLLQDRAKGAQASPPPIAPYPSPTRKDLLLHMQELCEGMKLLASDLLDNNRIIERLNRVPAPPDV

[3] = target: T1, Flag-tagged full-length human RND3 (pcDNA3.1-Flag-hRND3) (human); test: as above

Binder	binding [1]	also measured
HA-IKKε (IκB kinase epsilon) (protein, UniProt Q14164 1-716) MQSTANYLWHTDDLLGQGATASVYKARNKKSGELVAVKVFNTTSYLRPREVQVREFEVLRKLNHQNIVKLFAVEETGGSRQKVLVMEYCSSGSLLSVLESPENAFGLPEDEFLVVLRCVVAGMNHLRENGIVHRDIKPGNIMRLVGEEGQSIYKLTDFGAARELDDDEKFVSVYGTEEYLHPDMYERAVLRKPQQKAFGVTVDLWSIGVTLYHAATGSLPFIPFGGPRRNKEIMYRITTEKPAGAIAGAQRRENGPLEWSYTLPITCQLSLGLQSQLVPILANILEVEQAKCWGFDQFFAETSDILQRVVVHVFSLSQAVLHHIYIHAHNTIAIFQEAVHKQTSVAPRHQEYLFEGHLCVLEPSVSAQHIAHTTASSPLTLFSTAIPKGLAFRDPALDVPKFVPKVDLQADYNTAKGVLGAGYQALRLARALLDGQELMFRGLHWVMEVLQATCRRTLEVARTSLLYLSSSLGTERFSSVAGTPEIQELKAAAELRSRLRTLAEVLSRCSQNITETQESLSSLNRELVKSRDQVHEDRSIQQIQCCLDKMNFIYKQFKKSRMRPGLGYNEEQIHKLDKVNFSHLAKRLLQVFQEECVQKYQASLVTHGKRMRVVHETRNHLRLVGCSVAACNTEAQGVQESLSKLLEELSHQLLQDRAKGAQASPPPIAPYPSPTRKDLLLHMQELCEGMKLLASDLLDNNRIIERLNRVPAPPDV	binds	–
endogenous RND3 (protein, UniProt P61587 1-244) MKERRASQKLSSKSIMDPNQNVKCKIVVVGDSQCGKTALLHVFAKDCFPENYVPTVFENYTASFEIDTQRIELSLWDTSGSPYYDNVRPLSYPDSDAVLICFDISRPETLDSVLKKWKGEIQEFCPNTKMLLVGCKSDLRTDVSTLVELSNHRQTPVSYDQGANMAKQIGAATYIECSALQSENSVRDIFHVATLACVNKTNKNVKRNKSQRATKRISHMPSRPELSAVATDLRKDKAKSCTVM	–	binding [2]: binds
endogenous IKKε (protein, UniProt Q14164 1-716) MQSTANYLWHTDDLLGQGATASVYKARNKKSGELVAVKVFNTTSYLRPREVQVREFEVLRKLNHQNIVKLFAVEETGGSRQKVLVMEYCSSGSLLSVLESPENAFGLPEDEFLVVLRCVVAGMNHLRENGIVHRDIKPGNIMRLVGEEGQSIYKLTDFGAARELDDDEKFVSVYGTEEYLHPDMYERAVLRKPQQKAFGVTVDLWSIGVTLYHAATGSLPFIPFGGPRRNKEIMYRITTEKPAGAIAGAQRRENGPLEWSYTLPITCQLSLGLQSQLVPILANILEVEQAKCWGFDQFFAETSDILQRVVVHVFSLSQAVLHHIYIHAHNTIAIFQEAVHKQTSVAPRHQEYLFEGHLCVLEPSVSAQHIAHTTASSPLTLFSTAIPKGLAFRDPALDVPKFVPKVDLQADYNTAKGVLGAGYQALRLARALLDGQELMFRGLHWVMEVLQATCRRTLEVARTSLLYLSSSLGTERFSSVAGTPEIQELKAAAELRSRLRTLAEVLSRCSQNITETQESLSSLNRELVKSRDQVHEDRSIQQIQCCLDKMNFIYKQFKKSRMRPGLGYNEEQIHKLDKVNFSHLAKRLLQVFQEECVQKYQASLVTHGKRMRVVHETRNHLRLVGCSVAACNTEAQGVQESLSKLLEELSHQLLQDRAKGAQASPPPIAPYPSPTRKDLLLHMQELCEGMKLLASDLLDNNRIIERLNRVPAPPDV	–	binding [3]: binds
HA-MDA5 (protein, UniProt Q9BYX4 1-1025) MSNGYSTDENFRYLISCFRARVKMYIQVEPVLDYLTFLPAEVKEQIQRTVATSGNMQAVELLLSTLEKGVWHLGWTREFVEALRRTGSPLAARYMNPELTDLPSPSFENAHDEYLQLLNLLQPTLVDKLLVRDVLDKCMEEELLTIEDRNRIAAAENNGNESGVRELLKRIVQKENWFSAFLNVLRQTGNNELVQELTGSDCSESNAEIENLSQVDGPQVEEQLLSTTVQPNLEKEVWGMENNSSESSFADSSVVSESDTSLAEGSVSCLDESLGHNSNMGSDSGTMGSDSDEENVAARASPEPELQLRPYQMEVAQPALEGKNIIICLPTGSGKTRVAVYIAKDHLDKKKKASEPGKVIVLVNKVLLVEQLFRKEFQPFLKKWYRVIGLSGDTQLKISFPEVVKSCDIIISTAQILENSLLNLENGEDAGVQLSDFSLIIIDECHHTNKEAVYNNIMRHYLMQKLKNNRLKKENKPVIPLPQILGLTASPGVGGATKQAKAEEHILKLCANLDAFTIKTVKENLDQLKNQIQEPCKKFAIADATREDPFKEKLLEIMTRIQTYCQMSPMSDFGTQPYEQWAIQMEKKAAKEGNRKERVCAEHLRKYNEALQINDTIRMIDAYTHLETFYNEEKDKKFAVIEDDSDEGGDDEYCDGDEDEDDLKKPLKLDETDRFLMTLFFENNKMLKRLAENPEYENEKLTKLRNTIMEQYTRTEESARGIIFTKTRQSAYALSQWITENEKFAEVGVKAHHLIGAGHSSEFKPMTQNEQKEVISKFRTGKINLLIATTVAEEGLDIKECNIVIRYGLVTNEIAMVQARGRARADESTYVLVAHSGSGVIEHETVNDFREKMMYKAIHCVQNMKPEEYAHKILELQMQSIMEKKMKTKRNIAKHYKNNPSLITFLCKNCSVLACSGEDIHVIEKMHHVNMTPEFKELYIVRENKALQKKCADYQINGEIICKCGQAWGTMMVHKGLDLPCLKIRNFVVVFKNNSTKKQYKKWVELPITFPNLDYSECCLFSDED	no binding	–
HA-RIG-I (protein, UniProt O95786 1-925) MTTEQRRSLQAFQDYIRKTLDPTYILSYMAPWFREEEVQYIQAEKNNKGPMEAATLFLKFLLELQEEGWFRGFLDALDHAGYSGLYEAIESWDFKKIEKLEEYRLLLKRLQPEFKTRIIPTDIISDLSECLINQECEEILQICSTKGMMAGAEKLVECLLRSDKENWPKTLKLALEKERNKFSELWIVEKGIKDVETEDLEDKMETSDIQIFYQEDPECQNLSENSCPPSEVSDTNLYSPFKPRNYQLELALPAMKGKNTIICAPTGCGKTFVSLLICEHHLKKFPQGQKGKVVFFANQIPVYEQQKSVFSKYFERHGYRVTGISGATAENVPVEQIVENNDIIILTPQILVNNLKKGTIPSLSIFTLMIFDECHNTSKQHPYNMIMFNYLDQKLGGSSGPLPQVIGLTASVGVGDAKNTDEALDYICKLCASLDASVIATVKHNLEELEQVVYKPQKFFRKVESRISDKFKYIIAQLMRDTESLAKRICKDLENLSQIQNREFGTQKYEQWIVTVQKACMVFQMPDKDEESRICKALFLYTSHLRKYNDALIISEHARMKDALDYLKDFFSNVRAAGFDEIEQDLTQRFEEKLQELESVSRDPSNENPKLEDLCFILQEEYHLNPETITILFVKTRALVDALKNWIEGNPKLSFLKPGILTGRGKTNQNTGMTLPAQKCILDAFKASGDHNILIATSVADEGIDIAQCNLVILYEYVGNVIKMIQTRGRGRARGSKCFLLTSNAGVIEKEQINMYKEKMMNDSILRLQTWDEAVFREKILHIQTHEKFIRDSQEKPKPVPDKENKKLLCRKCKALACYTADVRVIEECHYTVLGDAFKECFVSRPHPKPKQFSSFEKRAKIFCARQNCSHDWGIHVKYKTFEIPVIKIESFVVEDIATGVQTLYSKWKDFHFEKIPFDPAEMSK	no binding	–
HA-TBK1 (protein, UniProt Q9UHD2 1-729) MQSTSNHLWLLSDILGQGATANVFRGRHKKTGDLFAIKVFNNISFLRPVDVQMREFEVLKKLNHKNIVKLFAIEEETTTRHKVLIMEFCPCGSLYTVLEEPSNAYGLPESEFLIVLRDVVGGMNHLRENGIVHRDIKPGNIMRVIGEDGQSVYKLTDFGAARELEDDEQFVSLYGTEEYLHPDMYERAVLRKDHQKKYGATVDLWSIGVTFYHAATGSLPFRPFEGPRRNKEVMYKIITGKPSGAISGVQKAENGPIDWSGDMPVSCSLSRGLQVLLTPVLANILEADQEKCWGFDQFFAETSDILHRMVIHVFSLQQMTAHKIYIHSYNTATIFHELVYKQTKIISSNQELIYEGRRLVLEPGRLAQHFPKTTEENPIFVVSREPLNTIGLIYEKISLPKVHPRYDLDGDASMAKAITGVVCYACRIASTLLLYQELMRKGIRWLIELIKDDYNETVHKKTEVVITLDFCIRNIEKTVKVYEKLMKINLEAAELGEISDIHTKLLRLSSSQGTIETSLQDIDSRLSPGGSLADAWAHQEGTHPKDRNVEKLQVLLNCMTEIYYQFKKDKAERRLAYNEEQIHKFDKQKLYYHATKAMTHFTDECVKKYEAFLNKSEEWIRKMLHLRKQLLSLTNQCFDIEEEVSKYQEYTNELQETLPQKMFTASSGIKHTMTPIYPSSNTLVEMTLGMKKLKEEMEGVVKELAENNHILERFGSLTMDGGLRNVDCL	no binding	–
HA-IRF3 (protein, UniProt Q14653 1-427) MGTPKPRILPWLVSQLDLGQLEGVAWVNKSRTRFRIPWKHGLRQDAQQEDFGIFQAWAEATGAYVPGRDKPDLPTWKRNFRSALNRKEGLRLAEDRSKDPHDPHKIYEFVNSGVGDFSQPDTSPDTNGGGSTSDTQEDILDELLGNMVLAPLPDPGPPSLAVAPEPCPQPLRSPSLDNPTPFPNLGPSENPLKRLLVPGEEWEFEVTAFYRGRQVFQQTISCPEGLRLVGSEVGDRTLPGWPVTLPDPGMSLTDRGVMSYVRHVLSCLGGGLALWRAGQWLWAQRLGHCHTYWAVSEELLPNSGHGPDGEVPKDKEGGVFDLGPFIVDLITFTEGSGRSPRYALWFCVGESWPQDQPWTKRLVMVKVVPTCLRALVEMARVGGASSLENTVDLHISNSHPLSLTSDQYKAYLQDLVEGMDFQGPGES	no binding	–
